According to the supplement of paper PMC11417369:
Some of the results follow.

Each sequence was assayed on PfAP2-HC AP2 domain (GST-tagged) (assay: gcPBM binding intensity (ln(normalized median fluorescence intensity)); higher = stronger DNA binding).
How it was run: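 For binding intensity, the highest Masliner-normalised natural-log median intensity across replicate spots of either probe orientation was taken. Protein bound to the array was stained with Alexa488 anti-GST antibody and scanned at 488 nm. The protein, GST-tagged P. falciparum DNA-binding domains from E. coli at about 25 μg on average, had been applied for 1 h to an Agilent 4 × 180k array of primer-extended double-stranded 36-bp intergenic genomic probes and negative controls.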

Sequence | gcPBM binding intensity (ln)
GAGAAACTTGTTTAAACATGCACAAAAAAAAAAAAA [TGCATGCA_site340] | 9.35
TATAAAATAAATTGTGCACACATATTTATAAATATG [CACACA_site2330] | 9.99
TATATGGAAAATTAAAGTACTAAAGAATAAATAGAA [XGTACX_site8796] | 9.73
TATAGATACATATACACACACACACCGACATATATA [CACACA_site9138] | 10.8
GTAGTTACATATAGGGTGCTCCAATAGTTGACCTCG | 9.53
AAATAAAAAAAGGGAACATGCAATATGTACAAATAT [TGCATGCA_site869] | 9.89
TCATAGGTTCAAAAGGGTACATTAATACATACATAT [XGTACX_site2236] | 9.74
AGCATTTTTCATTTTGCACACATGTTTTATGGGTAT [CACACA_site5839] | 10.1
CATATATATTGATATGCACACCTATGTATTGATGTA [CACACA_site8269] | 9.88
TCTTTTTTCTTTTTTTCACACATTATTTTTTAAATA [CACACA_site5197] | 9.71
ACGATGAATATGTAAAGTACGCAAATGTAACAATAT [XGTACX_site728] | 9.91
AGCTTCATATTATGGAGTACTATTAAAAATAAATAA [XGTACX_site2649] | 9.29
AAATATAACATCATCACACACATATACTTTATATGC [CACACA_site1126] | 10.7
TAATTAGATTATTTTTGTACATATTATTATAGGTTA [XGTACX_site2077] | 9.57
AGATATTATAAAATATGTACATATATATATATATAT [XGTACX_site2088] | 9.66
AAAGTAATAATGATTTGTACATATATATATATATAT [XGTACX_site8821] | 9.7
TTATCTTTTTTCGTTTGTACGTAACCATATTACTAT [XGTACX_site8853] | 9.85
ATTTTTTATGTTAATGCATGCTCATGTGTATTTCAT [TGCATGCA_site751] | 9.86
ATGCAAATGTGCATCACACACACTAATGGGTATGTA [CACACA_site2893] | 9.85
GGAATATATATACATACACACATATATATATATATA [CACACA_site1666] | 10
AAAAATAATTATTCGTGTACAAAAAAAAAAATATAA [XGTACX_site439] | 9.73
AAAAAAAAAAAAAAAAGTACAAGCATTGCGTTTTAA [XGTACX_site6075] | 9.38
AGAAAAAAAAAAAAAAAAATATATATATATATATAT [TGCATGCA_negctrl_site411] | 9.31
AAAAAAAAAAAAAAAACACACATACACGCACGCACA [CACACA_site7569] | 10.8
GTATATATATACCATTGTACTTTCGTAAAAATATTT [XGTACX_site4846] | 9.58
